# The list shows a part of the results.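 Rule for the calls: active = GRHL reporter fold change of at least 2 over DMSO at 10 µM; inactive = below 2-fold.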 Many values rest on one well or one pass, so single values are uncertain.
# System: HEK293 GRHL-luciferase reporter
# Assay: GRHL luciferase reporter activity, fold change over DMSO control; higher = stronger GRHL reporter activation
# Conditions: 10 µM; 24 h
# 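Note: stable HEK293 line carrying repeated GRHL consensus sites upstream of a minimal promoter driving luciferase, luminescence read 24 h post-treatment, normalized to 0.5% DMSO vehicle wells.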
row,SMILES,GRHL luciferase reporter activity
1,NC(=O)N1c2ccccc2C=Cc2ccccc21,inactive: 0.92
2,COC(=O)[C@H]1[C@H]2C[C@H]3c4[nH]c5ccccc5c4CCN3C[C@@H]2CC[C@@H]1O,inactive: 0.725
3,[O-][n+]1cccc(CO)c1,inactive: 0.915
4,Cc1nc2ccccn2c(=O)c1CCN1CCC(C(=O)c2ccc(F)cc2)CC1,inactive: 1.14
5,CC(=O)OCC(CCn1cnc2cnc(N)nc21)COC(C)=O,inactive: 1.03
6,O=C(Nc1ccccc1)Nc1ccccc1,active: 2.59
7,CC(C)(C)CC(C)(C)c1ccc(O)c(Cc2ccc(Cl)cc2Cl)c1,inactive: 0.568
8,CC(C)(C)NCC(O)COc1cccc2c1CCC(=O)N2 (stereo not given),inactive: 1.1
9,CC1(C)CC[C@]2(C)CC[C@]3(C)C(=CC[C@@H]4[C@@]5(C)CC[C@H](OC(=O)c6ccccc6)C(C)(C)[C@@H]5CC[C@]43C)[C@@H]2C1 [beta-AMYRIN BENZOATE],inactive: 1.23
10,O=C(O[C@@H]1Cc2c(O)cc(O)cc2O[C@@H]1c1ccc(O)c(O)c1)c1cc(O)c(O)c(O)c1,inactive: 0.735
11,C[N+]1(C)[C@@H]2C[C@@H](OC(=O)C(O)(c3cccs3)c3cccs3)C[C@H]1[C@@H]1O[C@@H]12,inactive: 0.918
12,CN(C)CCC(c1ccc(Br)cc1)c1ccccn1 (stereo not given),inactive: 0.915
13,NNC(=O)c1ccncc1,inactive: 1.01
14,CC(C)c1ccc2oc3nc(N)c(C(=O)O)cc3c(=O)c2c1,inactive: 1.53
15,CCN(CC)CCOC(=O)C(c1ccccc1)c1ccccc1,inactive: 0.854
16,O=c1cc(-c2ccccc2)oc2ccccc12,active: 3
17,N[C@@H](CC(=O)N1CCn2c(nnc2C(F)(F)F)C1)Cc1cc(F)c(F)cc1F,inactive: 1.05
18,CCCCC(CC)COC(=O)CC(C(=O)OCC(CC)CCCC)S(=O)(=O)O (stereo not given),inactive: 0.941
19,O=C(O)COCCN1CCN(C(c2ccccc2)c2ccc(Cl)cc2)CC1 (stereo not given),inactive: 1.31
20,CC(C)c1c(O)ccc2c1CC[C@H]1C(C)(C)CCC[C@]21C,inactive: 0.22

row,SMILES,GRHL luciferase reporter activity
1,COC(=O)c1c(C)cc(OC(=O)c2c(C)cc(O)c(CO)c2O)c(C)c1O,inactive: 1.42
2,CCCOc1ccc2[nH]c(NC(=O)OC)nc2c1,inactive: 0.531
3,Nc1nc(N)c2nc(-c3ccccc3)c(N)nc2n1,inactive: 1.47
4,CCc1nc(N)nc(N)c1-c1ccc(Cl)cc1,inactive: 1.33
5,COc1ccc(CN(CCN(C)C)c2ccccn2)cc1,inactive: 0.846
6,CC(C)CCCC(C)C1CCC2C3CCC4CCCCC4(C)C3CCC12C (stereo not given),inactive: 0.904
7,CN1[C@@H](CC(=O)c2ccccc2)CCC[C@H]1C[C@H](O)c1ccccc1,inactive: 1.01
8,CC(=O)OC(C)C[N+](C)(C)C (stereo not given),inactive: 0.927
9,OCCN1C[C@H](O)[C@@H](O)[C@H](O)[C@H]1CO,inactive: 1.05
10,CC[C@H](C)[C@H](N)C1=N[C@H](C(=O)N[C@@H](CC(C)C)C(=O)N[C@H](CCC(=O)O)C(=O)N[C@H](C(=O)N[C@H]2CCCCNC(=O)[C@H](CC(N)=O)NC(=O)[C@@H](CC(=O)O)NC(=O)[C@H](Cc3cnc[nH]3)NC(=O)[C@@H](Cc3ccccc3)NC(=O)[C@H]([C@@H](C)CC)NC(=O)[C@@H](CCCN)NC2=O)[C@@H](C)CC)CS1,inactive: 0.866
11,CN1C(=O)CC(C)(c2ccccc2)C1=O (stereo not given),inactive: 0.922
12,C#C[C@]1(O)CC[C@H]2[C@@H]3CCC4=CC(=O)CC[C@@H]4[C@H]3CC[C@@]21C,inactive: 0.95
13,COc1ccc(C(=O)/C=C/c2ccccc2)cc1,active: 194
14,COc1ccc(CN(CCN(C)C)c2ncccn2)cc1,inactive: 0.846
15,CC(O)C(=O)O.N (stereo not given),inactive: 1.14
16,CN(C)[C@@H]1C(=O)C(C(N)=O)=C(O)[C@@]2(O)C(=O)C3=C(O)c4c(O)ccc(Cl)c4[C@@H](O)[C@H]3C[C@@H]12,inactive: 0.829
17,COc1ccc([C@@H](C)C(=O)c2ccc(O)cc2O)cc1,inactive: 1.48
18,COc1cc(C(C)=O)ccc1O,inactive: 0.959
19,CO/N=C(\C(=O)N[C@@H]1C(=O)N2C(C(=O)O)=C(C[N+]3(C)CCCC3)CS[C@H]12)c1csc(N)n1,inactive: 1.05
20,CC(=O)Oc1ccc2c(C)cc(=O)oc2c1,inactive: 1.47
